Data as given in PubChem BioAssay AID1963576 (National Center for Advancing Translational Sciences (NCATS), 2024).
The campaign covered roughly 46,000 compounds. About 60 (0.1%) were called active. Another 3% or so got no clear call; they are omitted. Calls come from the whole dose curve; as a rule, active = well fitted inhibition curve with a large enough effect; inconclusive = small, poorly fitted or top-dose-only effect; inactive = no such curve, though single readings can be large or run the other way. This is one part of the list.

experiment: Primary qHTS assay for Inhibitors of ovarian cancer metastasis using an organotypic tumor microenvironment (TME) model.; note: nearly all actives have a fitted effect of over 65% in size;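 for activity change, negative = inhibition: plate controls were DMSO wells for no effect and tomatine positive control wells for full effect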; conditions: SKOV3ip1-GFP adhesion/invasion on 3D omental model, fluorescence; series mostly up to 45.8 µM; activity change, negative = inhibition: at the top concentration
In short: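 A 3D layer of primary human omental fibroblasts, mesothelial cells, fibronectin and collagen I, grown 48 hr, received SKOV3ip1-GFP cells in serum-free medium plus compounds at 0.36-46 umol/L. After 2 hr RT and 16 hr 37 C, fixed adherent GFP cells were counted; normalized to DMSO and tomatine.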

Activity change, negative = inhibition, inactive:
CCN(CC)c1cc2c(cc1F)c(=O)c(S(=O)(=O)c1ccc(OC)cc1)cn2Cc1ccccc1 6.28%, CC(=O)c1ccc(NC(=O)Cn2c(-n3nc(C)cc3C)nc(C)c(C)c2=O)cc1 2.63%, Cc1c(CCNC(=O)c2ccco2)sc2nc(-c3ccc(F)cc3)nn12 2.72%, CCN(Cc1nc(-c2ccc(OC)cc2)oc1C)S(=O)(=O)c1ccc(C)cc1 2.61%, COc1ccc(C(=O)N2CCC(C(=O)Nc3ccc(Cl)cc3)CC2)cc1 1.88%, CCCCN(CC)CCCNC(=O)Cn1ncc2c3ccccc3n(C)c2c1=O 4.4%, Cc1cc(=O)n2nc(N(C)CC(=O)NCc3cccc(Br)c3)sc2n1 16.4%, CCc1cccc(NC(=O)Cn2c(=O)n(CC(=O)NCCc3ccccc3)c(=O)c3ccccc32)c1 0.308%, O=C1CC(c2ccccc2)c2c(n3ncnc3[nH]c2=O)N1 (stereo unspecified) -13.1%, Cc1nc2ccc(S(=O)(=O)N(CC(=O)Nc3cccc(F)c3)Cc3ccccc3)cc2s1 4.59%, CC(C)N(C)C1CCN(S(=O)(=O)c2ccc3[nH]c(=O)ccc3c2)CC1 -9.92%, COc1ccc(NC(=O)Cn2c(SCc3ccc(F)cc3)nc3cccnc32)cc1OC -8.97%, O=C(NCCc1ccc(Cl)cc1)c1ccc(CS(=O)Cc2ccccc2Cl)o1 (stereo unspecified) 0.896%, OC[C@H]1O[C@@H](OCCc2ccc(O)cc2)[C@H](O)[C@@H](O)[C@H]1O -6.64%, Cc1ccc(C)c(CNC(=O)CCn2cccn2)c1 -6.53%, Oc1ccc([C@@H]2Oc3ccc(O)cc3[C@@H]3CCC[C@@H]32)cc1 11.8%, Cc1cccc(NC(=O)C2CCN(c3nc4ccccc4[nH]3)CC2)c1C -1.11%, CCOC(=O)c1oc2c(c1C)-c1nn(Cc3c(F)cccc3Cl)cc1CC2 6.88%, CCCCc1nn2c(=O)cc(COC(=O)c3ccc(NC(=O)CCc4ccccc4)cc3)nc2s1 8.65%, CCN(Cc1ccccc1)C(=O)Cn1c(=O)n(-c2ccc(Cl)cc2)c(=O)c2c(C)c(C(=O)N(C)C)sc21 -3.54%, Cc1c(CCC(=O)NCc2cccc(Cl)c2)c(=O)oc2c(C)c(O)ccc12 -25.6%, Cc1ccc(CCNC(=O)CS(=O)Cc2nc(-c3ccccc3C)oc2C)cc1 (stereo unspecified) -30.1%, CCCc1ccc(-c2ccc(C(=O)Oc3ccc(OCC)cc3)cc2)nc1 -1.01%, CCCCN(C)S(=O)(=O)c1ccc(C(=O)Nc2sc3c(c2C(N)=O)CC(C)(C)NC3(C)C)cc1 -2.75%, CCc1ccc(OCc2nc(-c3ccc(OC)cc3)no2)c(Br)c1 9.97%, O=C(Cn1ncc2c3ccccc3n(Cc3cccc(Cl)c3)c2c1=O)NCc1cccs1 6.52%, O=C(Cn1cnc2c(oc3ccccc32)c1=O)Nc1ccc(F)cc1F -4.02%, O=C(Nc1nc2ccccc2s1)c1ccc(S(=O)(=O)N2CCCC2)cc1 1.11%, COc1cc(Cl)c(NS(=O)(=O)c2ccc(-c3cnc(C4CC4)o3)cc2)c(OC)c1 5.74%, COc1ccc(CNC(=O)CSc2nc(-c3ccc(OC)c(OC)c3)cc(C(F)(F)F)n2)cc1 90.8%, CC(CNC(=O)c1ccc(CSc2nc3ccncc3n2Cc2ccccc2)cc1)c1ccccc1 (stereo unspecified) -15.2%, CCS(=O)(=O)c1nc(S(=O)(=O)c2ccc(C)cc2)c(NCCCOC)s1 -4.9%, CCOC(=O)c1cc(S(=O)(=O)N2CCN(c3ccc(C(C)=O)cc3)CC2)[nH]n1 -7.84%, CCCC12CN3CC(CCC)(CN(C1)C3c1ccccc1)C2=O (stereo unspecified) 1.6%, CC(=O)c1ccc(NC(=O)c2ccc(-c3ccc(Cl)cc3)o2)cc1 -7.1%, O=C(Nc1ccccc1Br)C(Cc1ccccc1)NS(=O)(=O)c1cccc2nsnc12 (stereo unspecified) -16.4%, Nc1cc(=O)nc(SCC(=O)Nc2ccc(F)cc2)n1CCc1ccccc1 -24.5%, CCn1c(CNC(=O)c2ccc(OC)cc2)nnc1SCC(=O)Nc1ccc(C)cc1 4.08%, Cc1nn(-c2ccc(N3CCCC3)nn2)c(C)c1CCC(=O)Nc1ccc(F)cc1F -8.52%, Cc1cccc(CCNC(=O)CCc2c(C)nc3c4c(C)cc(C)nc4nn3c2C)c1 -1.61%, Cc1c(C(=O)Nc2ccccc2F)sc2ncnc(N(C)C3CCCCC3)c12 -1.91%, O=C(NCc1ccc(F)cc1)c1ccc(Nc2nc3ccccc3n3nnnc23)cc1 -14.7%, COc1ccccc1N1CCN(c2cc(C)nc3nc(-c4ccc(C)cc4)nn23)CC1 20.5%

outcome, inactive:
Cc1ccc(NC(=O)CN2CCSc3ccc(S(=O)(=O)N4CCCC4)cc32)cc1, CCOc1ccc(S(=O)(=O)N(CC(=O)NCc2ccccc2OC)c2ccccc2)cc1, CCOc1ccc(OCC)c(NC(=O)Cn2nc(CC)n3c(cc4sccc43)c2=O)c1, CC(C)CCn1c(=O)c2sccc2n2c(CCCC(=O)NCCc3ccccc3)nnc12, COc1ccccc1C(=O)N1CCC(c2noc(-c3ccc(S(=O)(=O)N4CCCC4)cc3)n2)CC1, COc1cccc(CNC(=O)c2oc3c(c2C)-c2nn(Cc4cccc(Cl)c4)cc2CC3)c1OC, Cc1cc(C)cc(N2C(=O)CSC23C(=O)N(CC(=O)Nc2ccc(F)cc2F)c2ccccc23)c1 (stereo unspecified), O=C(Nc1ccc2nc(SCC(=O)N3CCCC3)sc2c1)c1cccc(Br)c1, O=C(CSc1nc2c(oc3ccccc32)c(=O)n1Cc1ccco1)Nc1ccccc1Cl, CCOc1ccc(C2C(=O)N(C3CCCCCC3)CC(=O)N2CCc2ccc(OC)c(OC)c2)cc1OC (stereo unspecified), O=S(=O)(c1ccc2nc(NCc3ccccc3Cl)ccc2c1)N1CCCCC1, CCOC(=O)c1ccc(NC(=O)NCCOCCn2c(=O)oc3ccccc32)cc1, CCN(CC)CCNC(=O)c1ccc2nc(CCc3ccccc3)oc2c1, COc1ccccc1NC(=O)C1CCN(C(=O)c2sc3nc[nH]c(=O)c3c2C)CC1, COc1ccc(N2CC(NC(=O)c3ccco3)CC2=O)cc1 (stereo unspecified), Cc1cc2oc3c(c(=O)c2cc1C)C1(C(=O)N(C)c2ccccc21)N(CCO)C3=O (stereo unspecified), CCc1cccc(C)c1NC(=O)Cn1c(=O)cc(C)c2c(C)nn(-c3cccc(F)c3)c21, COc1ccc(CNC(=O)Cn2ncc3c([nH]c4ccccc43)c2=O)cc1
